Experimental data: PubChem BioAssay AID1963576 (National Center for Advancing Translational Sciences (NCATS), 2024)
In all, about 46,000 compounds went through this assay and about 60 (0.1%) were called active. About 3% were inconclusive and are not listed. The call rests on the fitted dose curve; in most records, active means well fitted inhibition curve with a large enough effect; inconclusive means small, poorly fitted or top-dose-only effect; inactive means no such curve, though single readings can be large or run the other way. Some of the results follow.

Test: Primary qHTS assay for Inhibitors of ovarian cancer metastasis using an organotypic tumor microenvironment (TME) model. Further: nearly all actives have a fitted effect of over 65% in size.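 On Potency: count of GFP cancer cells still attached after washing and fixation.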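 On activity change, negative = inhibition: plate controls were DMSO wells for no effect and tomatine positive control wells for full effect.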
Conditions: SKOV3ip1-GFP adhesion/invasion on 3D omental model, fluorescence; series mostly up to 45.8 µM; activity change, negative = inhibition: at the top concentration
Summary of the method: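 A 3D layer of primary human omental fibroblasts, mesothelial cells, fibronectin and collagen I, grown 48 hr, received SKOV3ip1-GFP cells in serum-free medium plus compounds at 0.36-46 umol/L. After 2 hr RT and 16 hr 37 C, fixed adherent GFP cells were counted; normalized to DMSO and tomatine.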
Potency means the concentration at half of the fitted maximal effect.

Compound | activity change, negative = inhibition | outcome | Potency
COc1ccc(C(CNC(=O)COc2cc(C)cc(C)c2)N2CCCCC2)cc1 (stereo not given) | inactive: 10.4% |  | 
COc1ccccc1-n1nc(-c2ccccc2)c2cnc3c(F)cc(F)cc3c21 |  | inactive | 
Cc1ccc(NC(=O)Cn2c(=O)n(CC3CCC(C(=O)NC(C)C)CC3)c(=O)c3sccc32)cc1 (stereo not given) | inactive: 0.0812% |  | 
COc1ccc(-c2nc(C)c(CCNC(=O)C(=O)Nc3ccccc3F)s2)cc1 | inactive: -8.3% |  | 
Cc1cccc(NC(=O)CSc2nc3ccccc3nc2N2CCC(C)CC2)c1 | inactive: -5.96% |  | 
CCOc1ccc(N(Cc2ccccc2)C(=O)c2nc(SCC)ncc2Cl)cc1 | inactive: 2.37% |  | 
Cc1nc2c3ccccc3nc(NNC(=O)CCC(=O)N3CCN(c4cccc(Cl)c4)CC3)n2n1 |  | inactive | 
O=C(COc1ccc(F)cc1)Nc1nnc(S(=O)(=O)N2CCc3ccccc32)s1 | inactive: 0.649% |  | 
COc1ccc(S(=O)(=O)N(CC(=O)Nc2ccc(F)c(Cl)c2)c2ccc(C)cc2)cc1OC | inactive: 4.51% |  | 
CC1CCN(C(=O)CSc2c3c(nc4ccc(Cl)cc24)CCCC3)CC1 |  | inactive | 
CN(C)CCN(C(=O)c1ccco1)c1nc2c(F)cc(F)cc2s1 | inactive: -7.25% |  | 
CC1=C(c2ccc(C(C)C)cc2)S(=O)(=O)NC1=NCc1ccccc1C |  | inactive | 
Cc1ccc(NC(=O)CSc2nc3ccc(Br)cc3[nH]2)c(C)c1 | inactive: -8.51% |  | 
Cc1ccc(N2CC(C(=O)NCCS(=O)(=O)N3CCN(c4ccccc4F)CC3)CC2=O)cc1 (stereo not given) | inactive: 1.09% |  | 
O=C(Nc1ccc(OC(F)(F)F)cc1)C1CCN(S(=O)(=O)c2ccc3[nH]c(=O)ccc3c2)CC1 |  | inactive | 
Cc1ccc(Nc2cc(C)nc(-n3nc(C)cc3C)n2)cc1 |  | inactive | 
O=C(NC1CCCCC1)c1ccc2c(c1)sc1nc(-c3ccc(F)cc3)cn12 | inactive: -16.3% |  | 
O=C(NC1CCCCC1)c1ccc2c(c1)N(Cc1cccc(F)c1)C(=O)c1ccccc1S2 |  | inactive | 
CCOc1ccc(CNC(=O)c2ccc3c(c2)sc2nc(-c4ccccc4)cn23)cc1 | inactive: 2.15% |  | 
Cn1cnc(S(=O)(=O)N2CCC(C(=O)Nc3ccc(F)cc3F)CC2)c1 | inactive: 0.0512% |  | 
CCOCCc1nnc(NC(=O)C(=O)c2cc(C)n(-c3cccc(C)c3)c2C)s1 | inactive: -2.91% |  | 
Cc1ccc(-c2noc(CNC(=O)COc3cc(C)c(Br)c(C)c3)n2)cc1 | inactive: -26.4% |  | 
COc1ccc2nc(NC(=O)c3nc(S(=O)(=O)Cc4ccccc4F)ncc3Cl)sc2c1 |  |  | active: 7.08 µM
Cc1ccc(-n2nc(C(=O)N3CCN(c4ccc(F)cc4)CC3)c(=O)n(C)c2=O)cc1 | inactive: 13.6% |  | 

Compound | activity change, negative = inhibition | outcome | Potency
CCc1cccc(NC(=O)Cn2c(=O)n(-c3ccccc3C)c(=O)c3c2c2cc(C)ccc2n3C)c1 |  | inactive | 
COc1cc(OC)c(NC(=O)Cn2c(=O)c(C(F)(F)F)nc3ccccc32)cc1Cl | inactive: 87.7% |  | 
Cc1ccc(Cl)cc1-n1c(CCC(=O)O)ccc1-c1cccs1 | inactive: 3.29% |  | 
Clc1ccccc1N1CCN(Cc2nnc(-c3ccccc3)o2)CC1 |  | inactive | 
O=C(Cn1c(=O)n(-c2ccccc2)c(=O)c2ccc(C(=O)NCc3ccc4c(c3)OCO4)cc21)Nc1ccc(F)cc1 | inactive: -3.82% |  | 
COC(=O)c1ccc(CSc2nc3c([nH]c4ccccc43)c(=O)n2-c2ccc(F)cc2)o1 |  | inactive | 
COc1ccc(NCc2cc3cc4c(cc3n(CC(=O)Nc3cccc(F)c3)c2=O)OCO4)cc1 |  | inactive | 
CCOc1ccccc1C(=O)Oc1c(S(=O)(=O)c2ccc(C)cc2)c(C)nn1-c1ccccc1 |  | inactive | 
Cc1cccc(N2CCN(S(=O)(=O)c3cn(C)c(C)n3)CC2)c1C |  | inactive | 
CCCCN(C)CCCNC(=O)Cn1ncc2c3ccccc3n(Cc3cccc(Cl)c3)c2c1=O | inactive: 20% |  | 
COc1ccc(CCCc2nnc(SCC(=O)Nc3cccc(C)c3)o2)cc1C | inactive: 9.88% |  | 
Cc1ccccc1CN1CCc2nc(N3CCN(c4ncccn4)CC3)ncc2C1 | inactive: 4.63% |  | 
CCCCc1nn2c(=O)cc(COC(=O)c3cccc(NC(=O)c4cccc(Cl)c4)c3)nc2s1 | inactive: 2.77% |  | 
Cc1ccc(CNC(=O)c2ccc(CS(=O)(=O)Cc3ccc(F)cc3)o2)cc1 | inactive: -0.429% |  | 
Cc1cccc(CSc2nc3c(c(=O)[nH]2)CCC3)c1 | inactive: 0.627% |  | 
O=C(Nc1ccc(F)cc1F)c1cccc2c1C(=O)N(C1CCCCC1)C2 |  | inactive | 
COc1cccc(-n2c(SCC(=O)N3CCc4ccccc43)nc3c([nH]c4ccccc43)c2=O)c1 | inactive: -27.1% |  | 
COc1cc(NC(=O)CSc2nc(-c3cccs3)cc(C(F)(F)F)n2)cc(OC)c1OC | inactive: 42.4% |  | 
COCCNc1ccc(-c2nc(-c3ccncc3)no2)cc1[N+](=O)[O-] | inactive: -8.2% |  | 
Cc1cc(C(=O)NOCCO)c(Nc2ccc(I)cc2F)n(C)c1=O | inactive: 0.642% |  | 
COc1ccc(OC)c(S(=O)(=O)N2Cc3ccccc3CC2C(=O)Nc2ccc(C)cc2C)c1 (stereo not given) | inactive: 2% |  | 
CCS(=O)(=O)N1CCc2cc(C(=O)N3CCN(c4ccc(OC)cc4)CC3)ccc21 | inactive: 4.5% |  | 
CCc1cccc(C)c1NC(=O)C(CC)n1nc(C)c2c(C)n(-c3ccccc3)nc2c1=O (stereo not given) | inactive: -6.41% |  | 
COc1ccc(S(=O)(=O)NCc2cccn2Cc2cccc(C)c2)cc1Cl | inactive: 0.842% |  | 

Compound | activity change, negative = inhibition | outcome | Potency
CNC(=O)c1ccc2nc(CCc3ccccc3)oc2c1 | inactive: 26.8% |  | 
CCc1ccc(C2CC(=O)c3c([nH]c(C(=O)OC4CCC(C)CC4)c3C)C2)cc1 (stereo not given) | inactive: 2.68% |  | 
O=C(Nc1noc2ccccc12)c1c(F)cccc1F | inactive: -6.92% |  | 
Cc1ccc(CNC(=O)Cn2c(=O)n(-c3ccc(C)c(F)c3)c(=O)c3sc4ccccc4c32)cc1 | inactive: -9.54% |  | 
Cc1ccc(S(=O)(=O)N(CC(=O)N2CCc3ccccc3C2)c2ccc(C)c(C)c2)cc1 | inactive: 1.56% |  | 
CCOc1ccc(NC(=O)CCS(=O)(=O)c2ccc(Br)s2)cc1 | inactive: -4% |  | 
CCN(CC)CCCNC(=O)c1nn(-c2ccc(OC)c(Cl)c2)c(=O)c2c1c1ccccc1n2C | inactive: -4.37% |  | 
Cc1cccc(NC(=O)CN2C(=O)COc3ccc(S(=O)(=O)N4CCC(C)CC4)cc32)c1C |  | inactive | 
COC(=O)c1sccc1S(=O)(=O)N(CC(=O)NCc1ccccc1)c1ccc(C)c(C)c1 | inactive: -0.202% |  | 
Cn1nnnc1SCCNCc1ccc(OCc2ccccc2)cc1 | inactive: -1.89% |  | 
CCOC(=O)c1c(C)c(-c2ccccc2)n(CC(=O)Nc2cccc(F)c2)c1C |  | inactive | 
COc1ccc(NC(=O)CSc2nnc3scc(-c4ccc(Cl)cc4)n23)cc1 | inactive: 0.397% |  | 
CCCC(=O)Nc1cc(C(=O)NCc2ccc(OC)cc2)ccc1S(=O)(=O)c1ccc(Cl)cc1 | inactive: 0.254% |  | 
Cc1nn(CC(=O)NCc2ccccc2Cl)c(=O)c2cccn12 | inactive: 0.649% |  | 
CCOC(=O)C1CCN(C(=O)C2CCN(c3nnc(C)c4c(C)n(-c5ccccc5)nc34)CC2)CC1 |  | inactive | 
CCOc1ccc(-c2nc3c(C#N)c[nH]n3c2NC2CCCCC2)cc1 | inactive: 0.513% |  | 
O=C(Nc1cc(F)ccc1F)c1ccc2c(c1)nnn2C1CCCC1 |  | inactive | 
CCc1ccc(CNC(=O)C2CCCN(c3nn4cc(-c5ccc(F)cc5)nc4s3)C2)cc1 (stereo not given) | inactive: -10.1% |  | 
CCOC(=O)c1ccccc1NC(=O)N1CCCN(S(=O)(=O)c2ccc3c(ccn3CC)c2)CC1 |  | inactive | 
Cc1cccc(-c2nc(CCNC(=O)c3ccccc3Br)cs2)c1 | inactive: 13.6% |  | 
COc1ccc(NC(=O)C2CCCN(S(=O)(=O)c3c(C)n[nH]c3C)C2)cc1OC (stereo not given) | inactive: 0.395% |  | 
Cc1ccc(Cc2c(C)nn(-c3nc(C)c(C(=O)N4CCCCC4C)s3)c2C)cc1 (stereo not given) | inactive: 13.7% |  | 
COc1ccc(-c2noc(CSc3nnc(-c4ccccc4)n3-c3ccc(F)cc3)n2)c(OC)c1 | inactive: 2.75% |  | 
COc1ccc(-c2cc(OC(=O)c3ccc(F)cc3)c3c(C)oc(C)c3c(=O)c2)cc1OC | inactive: -6.7% |  | 

Compound | activity change, negative = inhibition | outcome | Potency
CCC(=O)N1CCc2cc(S(=O)(=O)NC(C(=O)NCCc3ccc(Cl)cc3)C(C)C)ccc21 (stereo not given) | inactive: 3.25% |  | 
CCc1nn(CC(=O)NCc2ccc(OC)cc2OC)c(=O)c2cc3c(OC)cccc3n12 |  | inactive | 
Cc1cccc(NC(=O)CN2c3ccccc3S(=O)(=O)c3ccccc32)c1C | inactive: -2.96% |  | 
COc1ccc(NC(=O)C2CCCN(S(=O)(=O)c3ccc(Cl)cc3)C2)cc1 (stereo not given) | inactive: 0.829% |  | 
Cc1ccc(Cl)cc1NC(=O)C(NS(=O)(=O)c1cccc2nsnc12)c1ccccc1 (stereo not given) | inactive: -11.8% |  | 
Cc1ccc(C)c(N2CCN(c3nccn4nc(-c5ccc(Br)cc5)cc34)CC2)c1 |  | inactive | 
CC(=O)c1cc(-c2ccc(F)cc2)n(CC(=O)NC(C)c2ccccc2)c1C (stereo not given) | inactive: 7.3% |  | 
Cc1ccccc1NC(=O)Nc1ccc2nc(N3CCN(C)CC3)cc(C)c2c1 | inactive: 0.335% |  | 
Cn1c(=O)oc2cc(S(=O)(=O)CCC(=O)NCCc3ccccc3)ccc21 |  | inactive | 
Cc1cccn2c(=O)c(/C=C(\C#N)c3nc4ccccc4s3)c(Oc3ccc(Br)cc3)nc12 | inactive: -0.444% |  | 
O=C(NCc1ccccc1F)C1CCN(Cc2cc3ccccc3n2Cc2cccc(Cl)c2)CC1 | inactive: 8.72% |  | 
COc1cc(C2c3c(oc4ccccc4c3=O)C(=O)N2c2nc(C)c(C)s2)ccc1O (stereo not given) | inactive: 1.73% |  | 
Cc1nc2nc(NC(=O)c3ccc(F)cc3)[nH]n2c(=O)c1Cc1ccccc1 | inactive: 2.6% |  | 
O=C(COCc1cc(-c2cccs2)on1)NCc1ccccc1Cl |  | inactive | 
CC(=O)c1ccc(NC(=O)C2=CC(c3cccs3)=NS(=O)(=O)N2C)cc1 | inactive: 13.8% |  | 
COc1ccc(CNCc2ccc3c(c2)n(C)c(=O)n3C)cc1 | inactive: 4.09% |  | 
COc1cccc(C(=O)NC(=O)Nc2ccc(-n3nc(C(F)(F)F)cc3C(F)(F)F)cc2)c1 | inactive: 1.29% |  | 
Cc1cc(C)n(-c2nnc(Nc3ccc(C(C)C)cc3)c3ccccc23)n1 |  | inactive | 
Fc1ccc(Nc2c3c(nc4nncn24)CCC3)cc1 |  | inactive | 
Cc1ccc2nc(-c3ccc(NC(=O)C(F)(F)F)cc3)sc2c1 | inactive: 8% |  | 
Cc1nc2c(c(C)nn2-c2ccccc2)c(C)c1CCC(=O)Nc1ccc(F)cc1 | inactive: 0.419% |  | 
COc1cc(Nc2nc(SCc3cccc(Cl)c3)nc3ccccc23)cc(OC)c1 | inactive: -0.15% |  | 
Nc1nc(Cl)nc2c1ncn2[C@H]1C[C@H](O)[C@@H](CO)O1 | inactive: -18.5% |  | 
